SMILES strings stand for the structures. The campaign covered roughly 310,000 compounds. About 2,200 (0.71%) showed an effect of 50% or more. Effects have a minus sign here. The list shows a part of the results.

Sequence of human ether-à-go-go-related gene (hERG) potassium channel (Q12809 whole entry, looked up): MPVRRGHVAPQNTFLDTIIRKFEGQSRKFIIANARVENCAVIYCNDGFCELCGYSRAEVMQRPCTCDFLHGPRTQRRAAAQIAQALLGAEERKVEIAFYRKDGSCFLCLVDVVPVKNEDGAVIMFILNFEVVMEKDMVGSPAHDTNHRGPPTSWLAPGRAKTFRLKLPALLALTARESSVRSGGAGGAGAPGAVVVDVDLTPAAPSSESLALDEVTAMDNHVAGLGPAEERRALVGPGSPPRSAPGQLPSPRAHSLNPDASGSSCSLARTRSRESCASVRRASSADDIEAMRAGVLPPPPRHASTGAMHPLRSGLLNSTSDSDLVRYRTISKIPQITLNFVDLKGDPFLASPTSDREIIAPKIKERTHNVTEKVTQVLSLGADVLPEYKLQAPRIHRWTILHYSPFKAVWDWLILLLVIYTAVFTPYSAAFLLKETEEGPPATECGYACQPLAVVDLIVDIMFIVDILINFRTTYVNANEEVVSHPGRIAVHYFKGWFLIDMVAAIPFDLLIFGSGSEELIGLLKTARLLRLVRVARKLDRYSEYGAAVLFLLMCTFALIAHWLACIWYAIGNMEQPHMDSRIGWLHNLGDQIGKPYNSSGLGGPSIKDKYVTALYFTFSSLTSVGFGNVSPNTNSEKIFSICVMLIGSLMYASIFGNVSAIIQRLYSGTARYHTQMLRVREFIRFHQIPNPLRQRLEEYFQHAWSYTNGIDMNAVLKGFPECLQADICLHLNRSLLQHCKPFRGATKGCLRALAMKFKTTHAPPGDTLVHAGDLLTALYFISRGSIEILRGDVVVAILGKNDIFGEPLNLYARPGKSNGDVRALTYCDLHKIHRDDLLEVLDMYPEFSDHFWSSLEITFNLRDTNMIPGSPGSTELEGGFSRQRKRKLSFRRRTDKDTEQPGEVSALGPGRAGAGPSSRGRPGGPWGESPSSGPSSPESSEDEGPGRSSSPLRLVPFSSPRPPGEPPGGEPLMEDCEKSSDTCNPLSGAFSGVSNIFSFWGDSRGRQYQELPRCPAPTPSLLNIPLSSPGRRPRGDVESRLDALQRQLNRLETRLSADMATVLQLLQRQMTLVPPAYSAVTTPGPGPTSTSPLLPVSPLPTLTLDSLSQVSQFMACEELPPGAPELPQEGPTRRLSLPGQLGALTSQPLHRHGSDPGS

This assay has as its target human ether-à-go-go-related gene (hERG) potassium channel (human, UniProt Q12809). Description: primary screen, population patch clamp on CHO cells stably expressing hERG.
For the compound `O=C(C1CC1)N1CCc2cc(Br)cc(S(=O)(=O)NCc3ccccn3)c21`, the “hERG current change (%, negative = inhibition) at 1uM” value amounted to 20%. In the case of `O=C(CSc1nc(-c2ccccc2)c(-c2ccccc2)[nH]1)NCc1ccco1` it was 4.85%. With `COc1ccc(OCc2cc(C(=O)N(C)Cc3cc(C4CC4)n[nH]3)no2)c(Cl)c1`, the “hERG current change (%, negative = inhibition) at 1uM” value came out at 10%. The result for `COCC(C)NS(=O)(=O)c1ccc(NC(=O)C(Cc2ccccc2)NC(N)=O)cc1` (stereo not drawn) reads 2.58%. In the case of `COC(=O)c1ccc(CSc2nc3ccccc3[nH]2)o1` it was 8.73%; in that of `Cc1nn(Cc2ccccc2)c(Cl)c1C(=O)OCC(=O)Nc1cccc2ccccc12`, 7.04%; in that of `O=C(O)c1c[nH]c2ccc(S(=O)(=O)N(CCCl)CCCl)cc12`, -3.23%. The result for `Cc1cc(C=NCCO)c(C)n1-c1cc(Cl)ccc1Cl` reads 1.44%; that for `O=C(COC(=O)c1ccc(O)cc1)Nc1ccc(Cl)cc1C(=O)c1ccccc1`, 17.7%. With `COc1ccc(NC2CCCN(C(=O)c3cccc(C(F)(F)F)c3)C2)cc1OC` (stereo not drawn), the “hERG current change (%, negative = inhibition) at 1uM” value worked out at 9.2%. The result for `CS(=O)(=O)C1=NSC2=NC(=O)/C(=C\c3ccc(OS(=O)(=O)c4ccccc4)cc3)C(=N)N21` reads 16.8%; that for `CCOc1ccc(OCc2ccc(C(=O)N3CCOCC3)cc2)cc1`, 15.7%. In the case of `CCOc1ccc(NC(=S)Nc2ccccc2C2(C)CC2)cc1` it was 5.96%. Take `Cc1ccc(S(=O)(=O)Nc2ccc(C(=O)N3CCN(c4ccccc4O)CC3)cc2)cc1[N+](=O)[O-]`: the “hERG current change (%, negative = inhibition) at 1uM” value is 8.13%. In the case of `O=C(CSc1nnc(NC(=O)c2c(F)cccc2F)s1)NCc1ccccc1` it was 11.5%.

With `Cc1cc(NCCCn2ccnc2)n2nc(C)c(-c3ccccc3)c2n1`, the “hERG current change (%, negative = inhibition) at 1uM” value is -25.4%. In the case of `O=C(CNC(=O)c1cccs1)Nc1ccncc1` it was 6.86%; in that of `Cn1nc(OC(=O)Nc2ccccc2)cc1C(F)(F)F`, 9.18%.

Take `O=C(Cc1ccccc1Cl)Nc1cccc(S(=O)(=O)N2CCOCC2)c1`: the “hERG current change (%, negative = inhibition) at 1uM” value is 9.27%. The result for `COc1ccc2c(c1)NC(c1ccc(N(C)C)cc1)c1cccn1-2` (stereo not drawn) reads 16%; that for `COc1ccccc1NC(=O)CSc1nnc(-c2ccccc2)o1`, 10.2%.

`COc1ccccc1-c1coc2cc(OCC(=O)OCc3ccccc3)ccc2c1=O`: the “hERG current change (%, negative = inhibition) at 1uM” value was found to be 16.2%.

Consider `N/C(CC(=O)NC1CCCCC1)=N\OCC(=O)Nc1ccc(Cl)c(Cl)c1`, for which the “hERG current change (%, negative = inhibition) at 1uM” value stood at 2.36%. Take `Cl.O=C(C(c1ccccc1)c1ccccc1)N1CCN(CC(O)COc2ccccc2)CC1` (stereo not drawn): the “hERG current change (%, negative = inhibition) at 1uM” value is on record as -2.46%. The result for `O=C(Nc1cc(Cl)cc(Cl)c1)c1cccnc1` reads 12.8%. `O=C(NCc1ccncc1)Nc1cc(Cl)ccc1Cl`: the “hERG current change (%, negative = inhibition) at 1uM” value is 5.13%. In the case of `O=C(c1ccc([N+](=O)[O-])cc1)N1CCc2ccccc2C1` it was -8.98%; in that of `COc1ccc(S(=O)(=O)NC2CC2)cc1Br`, 19.2%; in that of `COc1ccc(N(C(=O)c2snc(C(N)=O)c2N)C(C(=O)NCc2ccccc2)c2ccc(F)cc2)c(OC)c1` (stereo not drawn), 6.39%. The result for `CC(C)NC(=S)N/N=C/c1cc(Br)ccc1O` reads 5.01%; that for `CSc1ccccc1NC(=O)CN(C)C(=O)Cc1c[nH]c2ccccc12`, 4.94%; that for `COc1ccc(NC(=O)C(=O)NCCN2CCN(C(=O)c3ccc(C)cc3)CC2)cc1`, -28.6%. The result for `CCOc1ccc(/C=N/OCC(=O)Nc2ccc(OCc3ccccc3)cc2)cc1OC` reads 11.4%. For `O=C(CC1Oc2ccccc2NC1=O)NC1CC1` (stereo not drawn), the “hERG current change (%, negative = inhibition) at 1uM” value stood at 3.9%. The result for `NS(=O)(=O)c1ccc(CCNC(=O)CN2CCN(Cc3cccc4ccccc34)CC2)cc1` reads 8.33%; that for `O=[N+]([O-])c1c(NCCCO)cc(N2CCN(Cc3ccc4c(c3)OCO4)CC2)c2nonc12`, -1.28%; that for `COc1ccccc1NC(=S)N(Cc1ccccc1)Cc1ccccn1`, -0.144%. The result for `Cn1c(CN2CCOCC2)nnc1SCc1ccccc1` reads -2.07%; that for `Cc1ccc(/C=N/NC(=O)CN2CCN(S(=O)(=O)c3ccc(Br)cc3)CC2)s1`, -3.22%. In the case of `Oc1c(CN2CCCCC2)cc(COCc2ccccc2)c2cccnc12` it was 12.6%; in that of `CC(=O)Nc1ccc(Cl)c(-c2nc3ncccc3o2)c1`, 3.15%; in that of `Cc1ccc(C(=O)NCC(=O)NCCCc2ccccc2)s1`, 11.7%.

With `COc1ccc(CC(=O)NCC2CCCN(Cc3ccc(OC(F)(F)F)cc3)C2)cc1` (stereo not drawn), the “hERG current change (%, negative = inhibition) at 1uM” value is recorded as -23.4%. As to `CC(CN1CCOCC1)OC(=O)C(c1ccccc1)c1ccccc1` (stereo not drawn), the “hERG current change (%, negative = inhibition) at 1uM” value was 4.92%. As for `CCOCCCNC(=O)C(NC(=O)c1cnccn1)c1ccc(C)cc1` (stereo not drawn), the “hERG current change (%, negative = inhibition) at 1uM” value came out at 21.5%.

The record behind these values is publication PMC4336329 (PLoS ONE, 2015).
